Data: patent publication US20130280256A1 (Eli Lilly, published 2013)

Columns and labels:
[1] = target: T1, human BAFF (B-cell Activating Factor of the TNF Family) (human, UniProt Q9Y275 fragment); assay: SPR (Biacore 2000), antibody captured on protein A, antigen as analyte, 25 C, 1:1 model, n=3
T1 construct: Called soluble BAFF in the T1165 assay; also called soluble BAFF
Protocol: (§1) A CM5 chip containing immobilized protein A (generated using standard NHS-EDC amine coupling) on all four flow cells (Fc) is used to employ a capture methodology. Antibody samples are prepared at 10 mcg/mL by dilution into running buffer. Human IL-17 or human BAFF are prepared at final concentrations of 20.0, 10.0, 5.0, 2.5, 1.25 and 0 (blank) nM by dilution into running buffer. Each analysis cycle consists of (1) capturing antibody samples on separate flow cells (Fc2, Fc3, and Fc4), (2) injection of 250 mcL (300-sec) of human IL-17 or human BAFF over all Fc at 50 mcL/min, (3) return to buffer flow for 20 mM to monitor dissociation phase, (4) regeneration of chip surfaces with a 5 mcL (30-sec) injection of glycine, pH1.5, (5) equilibration of chip surfaces with a 10 mcL (60-sec) injection of HBS-EP+. Data are processed using standard double-referencing and fit to a 1:1 binding model using Biacore 2000 Evaluation software, version 4.1, to determine the association rate (kₒₙ, M⁻¹s⁻¹ units), dissociation rate (koff, s⁻¹ units), and Rₘₐₓ (RU units). The equilibrium dissociation constant (KD) is calculated as from the relationship KD=koff/kₒₙ, and is in molar units.

[2] = target: T2, human IL-17 (homodimer of two human IL-17A proteins) (human, UniProt Q16552 24-155); assay: as above
T2 construct: also called recombinant IL-17
T2 sequence (looked up): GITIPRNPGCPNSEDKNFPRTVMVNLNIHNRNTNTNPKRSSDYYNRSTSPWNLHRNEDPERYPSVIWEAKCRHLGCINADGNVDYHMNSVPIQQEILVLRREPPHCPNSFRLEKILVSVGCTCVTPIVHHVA
Protocol: as §1

[3] = target: T1, human BAFF (B-cell Activating Factor of …); assay: SPR, kinetic binding experiment
Protocol: as §1, with “Antibody” for “A CM5 chip containing immobilized protein A (generated using standard NHS-EDC amine coupling) on all four flow cells (Fc) is used to employ a capture methodology. Antibody”
(§2) All measurements are performed at 25° C.

[4] = target: T2, human IL-17 (homodimer of two human …); assay: SPR, kinetic binding experiment
Protocol: as §1, with “Antibody” for “A CM5 chip containing immobilized protein A (generated using standard NHS-EDC amine coupling) on all four flow cells (Fc) is used to employ a capture methodology. Antibody”
as §2

Kd [1]: 0.06 nM
koff [1]: 0.00012 s⁻¹
kon [1]: 2.3e+06 M⁻¹ s⁻¹
Kd [2]: 0.014 nM
koff [2]: 3.7e-05 s⁻¹
kon [2]: 2.5e+06 M⁻¹ s⁻¹
stoichiometry [3]: ~1
stoichiometry [4]: ~1.3
B1: bispecific antibody comprising two first polypeptides of SEQ ID NO:1 and two second polypeptides of SEQ ID NO:2 (anti-BAFF IgG4 MAb with C-terminal anti-IL-17 … (bispecific antibody)
heavy: QVQLQQWGAGLLKPSETLSLTCAVYGGSFSGYYWSWIRQPPGKGLEWIGEINHSGSTNYNPSLKSRVTISVDTSKNQFSLKLSSVTAADTAVYYCARGYYDILTGYYYYFDYWGQGTLVTVSSASTKGPSVFPLAPCSRSTSESTAALGCLVKDYFPEPVTVSWNSGALTSGVHTFPAVLQSSGLYSLSSVVTVPSSSLGTKTYTCNVDHKPSNTKVDKRV[gap - human IgG4 Fc with S228P L445P (EU numbers)]GGGSGGGGTGGGGSQVQLVQSGAEVKKPGSSVKVSCKASGYKFTDYHIHWVRQAPGQCLEWMGVINPTYGTTDYNQRFKGRVTITADESTSTAYMELSSLRSEDTAVYYCARYDYFTGTGVYWGQGTLVTVSSGGGGSGGGGSGGGGSGGGGSDIVMTQTPLSLSVTPGQPASISCRSSRSLVHSRGETYLHWYLQKPGQSPQLLIYKVSNRFIGVPDRFSGSGSGTDFTLKISRVEAEDVGVYYCSQSTHLPFTFGCGTKLEIK
light: EIVLTQSPATLSLSPGERATLSCRASQSVSRYLAWYQQKPGQAPRLLIYDASNRATGIPARFSGSGSGTDSTLTISSLEPEDFAVYYCQQRSNWPRTFGQGTKVEIKRTVAAPSVFIFPPSDEQLKSGTASVVCLLNNFYPREAKVQWKVDNALQSGNSQESVTEQDSKDSTYSLSNTLTLSKADYEKHKVYACEVTHQGLSSPVTKSFNRGEC
modifications: glycosylated at asparagine residue 300 of SEQ ID NO:1
notes: MAb-scFv format, tetravalent; About 90:10 correctly folded antibody to diabody; also called anti-BAFF-anti-IL-17 bispecific antibody
